{"source": "paper PMC4336329", "about": "(PLoS ONE, 2015)", "note": "In all, about 310,000 compounds went through this assay and about 14,000 (4.5%) showed an effect of 50% or more. Effects have a minus sign here. The list shows a part of the results.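 Note: peak tail current of the secondary pulse compared with the same well before compound.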"}
{"biological_target": "human ether-à-go-go-related gene (hERG) potassium channel (human, UniProt Q12809)", "sequence (Q12809 whole entry, looked up)": "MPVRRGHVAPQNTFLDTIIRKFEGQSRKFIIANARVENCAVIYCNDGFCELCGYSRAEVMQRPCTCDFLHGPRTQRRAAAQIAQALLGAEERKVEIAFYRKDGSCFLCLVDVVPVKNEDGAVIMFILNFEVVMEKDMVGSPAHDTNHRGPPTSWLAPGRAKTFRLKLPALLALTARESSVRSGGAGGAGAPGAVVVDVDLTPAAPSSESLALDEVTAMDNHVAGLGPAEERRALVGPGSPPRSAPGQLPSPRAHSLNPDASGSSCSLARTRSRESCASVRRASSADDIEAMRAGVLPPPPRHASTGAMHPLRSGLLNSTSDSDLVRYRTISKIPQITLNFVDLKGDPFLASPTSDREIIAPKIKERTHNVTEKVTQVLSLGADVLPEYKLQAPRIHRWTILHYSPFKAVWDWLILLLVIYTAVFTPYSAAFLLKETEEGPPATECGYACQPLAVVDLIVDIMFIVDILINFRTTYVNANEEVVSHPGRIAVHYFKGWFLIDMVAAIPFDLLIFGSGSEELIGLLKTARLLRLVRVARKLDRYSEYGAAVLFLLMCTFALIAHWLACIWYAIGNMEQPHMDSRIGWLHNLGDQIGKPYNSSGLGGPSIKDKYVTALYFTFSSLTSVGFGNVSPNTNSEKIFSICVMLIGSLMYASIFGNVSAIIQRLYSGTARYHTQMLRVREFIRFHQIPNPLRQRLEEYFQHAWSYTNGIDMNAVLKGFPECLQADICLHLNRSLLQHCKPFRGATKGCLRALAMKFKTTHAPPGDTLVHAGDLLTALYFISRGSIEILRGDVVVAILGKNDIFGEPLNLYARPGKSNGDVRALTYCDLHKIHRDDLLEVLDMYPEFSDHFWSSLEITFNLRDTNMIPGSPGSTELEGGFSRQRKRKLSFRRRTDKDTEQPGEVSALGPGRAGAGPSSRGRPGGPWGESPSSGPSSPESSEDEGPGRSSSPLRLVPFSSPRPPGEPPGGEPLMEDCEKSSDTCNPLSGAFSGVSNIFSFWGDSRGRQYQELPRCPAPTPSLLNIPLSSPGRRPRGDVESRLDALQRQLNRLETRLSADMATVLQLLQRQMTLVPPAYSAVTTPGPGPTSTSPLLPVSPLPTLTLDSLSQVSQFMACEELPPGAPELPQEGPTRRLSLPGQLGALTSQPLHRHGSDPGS", "experiment": "primary screen, population patch clamp on CHO cells stably expressing hERG", "units": {"hERG current change (%, negative = inhibition) at 10uM": "%"}}
{"smiles": "CCOC(=O)c1cnc(-n2nc(C)cc2C)nc1N1CCOCC1", "hERG current change (%, negative = inhibition) at 10uM": -5.34}
{"smiles": "CCCCn1c(SCC(=O)N2CCOCC2)nnc1-c1ccoc1C", "hERG current change (%, negative = inhibition) at 10uM": -0.136}
{"smiles": "C=CCc1cc(/C=C2/NC(=S)NC2=O)cc(OC)c1O", "hERG current change (%, negative = inhibition) at 10uM": 3.53}
{"smiles": "COC(=O)/C=C1/S/C(=N/NC(=O)c2ccc(OC)cc2)NC1=O", "hERG current change (%, negative = inhibition) at 10uM": 21.1}
{"smiles": "O=C(CCCCCNC(=O)N1CCn2c1nc1ccccc12)N[C@H](C(=O)O)c1ccccc1", "hERG current change (%, negative = inhibition) at 10uM": 19.9}
{"smiles": "O=C(Cc1ccccc1[N+](=O)[O-])N1CCN(c2ccc(F)cc2)CC1", "hERG current change (%, negative = inhibition) at 10uM": -20.1}
{"smiles": "Cc1ccc(NC(=O)N2CCC(c3nc4c(nnn4Cc4cccc(Cl)c4)c(=O)[nH]3)CC2)cc1", "hERG current change (%, negative = inhibition) at 10uM": -5.81}
{"smiles": "CCS(=O)(=O)N1CCC(C(=O)NCCc2ccc(C)cc2)CC1", "hERG current change (%, negative = inhibition) at 10uM": 0.92}
{"smiles": "O=C(O)Cn1nc(-c2ccc(Cl)cc2)ccc1=O", "hERG current change (%, negative = inhibition) at 10uM": 0.627}
{"smiles": "Cc1ccc(C(=O)N/C(=C/c2ccc(-c3cccc([N+](=O)[O-])c3)o2)C(=O)NC(C)C)cc1", "hERG current change (%, negative = inhibition) at 10uM": -30.8}
{"smiles": "COc1ccccc1N1CCN(C(=O)CCS(=O)(=O)c2ccc3c(c2)NC(=O)C(C)S3)CC1", "note": "(stereo not shown)", "hERG current change (%, negative = inhibition) at 10uM": 3.51}
{"smiles": "CCC(Oc1nc2ccccc2nc1-c1ccccc1NC(C)=O)C(=O)c1ccccc1", "note": "(stereo not shown)", "hERG current change (%, negative = inhibition) at 10uM": -11.5}
{"smiles": "S=C1NCN(Cc2ccco2)CN1c1ccccc1", "hERG current change (%, negative = inhibition) at 10uM": 9.93}
{"smiles": "COc1ccc(-c2cc3ncnc(Cl)c3s2)cc1", "hERG current change (%, negative = inhibition) at 10uM": 19.7}
{"smiles": "COc1ccc(-n2cc(CN(C)C(C)c3ccncn3)c(-c3cccc(F)c3)n2)cc1", "note": "(stereo not shown)", "hERG current change (%, negative = inhibition) at 10uM": -39.9}
{"smiles": "C=C(C)c1cccc(C(C)(C)NC(=O)N2CCC(C)CC2)c1", "hERG current change (%, negative = inhibition) at 10uM": 8.25}
{"smiles": "CCOc1ccc(NS(=O)(=O)c2ccc(NC(=O)C3CCCO3)cc2)cc1", "note": "(stereo not shown)", "hERG current change (%, negative = inhibition) at 10uM": 20.7}
{"smiles": "Cl.OC(Cc1ccccc1)(c1ccccc1)C1CN2CCC1CC2", "note": "(stereo not shown)", "hERG current change (%, negative = inhibition) at 10uM": -49.7}
{"smiles": "Cc1ccc(NC(=O)c2ccc3c(c2)[nH]c(=O)n3C(C)C)cc1", "hERG current change (%, negative = inhibition) at 10uM": 4.21}
{"smiles": "CCOC(=O)c1ccc(NS(=O)(=O)c2ccc3c(c2)NC(=O)CCS3)cc1", "hERG current change (%, negative = inhibition) at 10uM": 21}
{"smiles": "CCOC(=O)c1ccc(NC(=S)N2CCN(c3ccc(N4CCOCC4)nn3)CC2)cc1", "hERG current change (%, negative = inhibition) at 10uM": 3.71}
{"smiles": "Cc1ccc2nc(C(=O)N3CCCC(Nc4ccc(F)cc4)C3)cn2c1", "note": "(stereo not shown)", "hERG current change (%, negative = inhibition) at 10uM": 2.9}
{"smiles": "CN1C(=O)/C(=C/c2cccc(Cl)c2)Sc2ccc(C(=O)N3CCCC3)cc21", "hERG current change (%, negative = inhibition) at 10uM": -49.7}
{"smiles": "COc1ccc(Nc2ccc([N+](=O)[O-])c3nonc23)c(OC)c1", "hERG current change (%, negative = inhibition) at 10uM": 17.8}
{"smiles": "O=P(O)(O)O.c1ccc(CN(CC2=NCCN2)c2ccccc2)cc1", "hERG current change (%, negative = inhibition) at 10uM": -17.3}
{"smiles": "COc1ccc(-c2ccc(N(C)C)cc2)cc1[C@H]1[C@H]2C=CC[C@@H](C)[C@@H]2C(=O)N1Cc1ccccc1", "hERG current change (%, negative = inhibition) at 10uM": 10.1}
{"smiles": "C=CCN1C(=O)/C(=C/c2ccc(N3CCOCC3)o2)C(=O)NC1=S", "hERG current change (%, negative = inhibition) at 10uM": -21.7}
{"smiles": "Cc1ccc(NC(=O)c2ccc(COc3ccccc3[N+](=O)[O-])o2)nc1", "hERG current change (%, negative = inhibition) at 10uM": -0.793}
{"smiles": "Cc1ccc(NC(=O)N2CCSc3ccccc32)cc1", "hERG current change (%, negative = inhibition) at 10uM": -9.08}
{"smiles": "COc1ccc(C(C)=O)cc1CSCCC(=O)O", "hERG current change (%, negative = inhibition) at 10uM": 24.8}
{"smiles": "O=C(O)Cn1cnc2scc(-c3ccccc3)c2c1=O", "hERG current change (%, negative = inhibition) at 10uM": 7.11}
{"smiles": "O=C(CCc1nc(-c2ccccc2Cl)no1)NC1CCCCC1", "hERG current change (%, negative = inhibition) at 10uM": 10.6}
{"smiles": "Cc1cc(C)n(CCC(=O)N2c3ccccc3CC2C)n1", "note": "(stereo not shown)", "hERG current change (%, negative = inhibition) at 10uM": 10.3}
{"smiles": "COc1ccccc1OCCn1cc(C(=O)O)c2ccccc21", "hERG current change (%, negative = inhibition) at 10uM": 3.25}
{"smiles": "COc1ccc(CCn2c(=N)c(C(=O)NCC3CCCO3)cc3c(=O)n4ccccc4nc32)cc1", "note": "(stereo not shown)", "hERG current change (%, negative = inhibition) at 10uM": -77.9}
{"smiles": "CCOC(=O)N1CCN(C(=O)/C(=C/c2ccccc2OC)NC(=O)c2ccccc2)CC1", "hERG current change (%, negative = inhibition) at 10uM": -37.9}
{"smiles": "COc1ccccc1C(=O)Nc1cc(C)c(OCC(=O)N2CCOCC2)c(C)c1", "hERG current change (%, negative = inhibition) at 10uM": 1.57}
{"smiles": "COc1ccc2cc3cc(C(=O)NCCCN4CCOCC4)oc3nc2c1", "hERG current change (%, negative = inhibition) at 10uM": -5.55}
{"smiles": "O=C(NCc1ccccc1)C(=O)NCC1OCCN1S(=O)(=O)c1cccs1", "note": "(stereo not shown)", "hERG current change (%, negative = inhibition) at 10uM": 5.82}
{"smiles": "CCOC(=O)N1CCN(S(=O)(=O)c2c(C)nn(C)c2C)CC1", "hERG current change (%, negative = inhibition) at 10uM": 16.4}
{"smiles": "O=C(CSc1nn(-c2ccc(F)cc2)c(=S)s1)NCC1CCCO1", "note": "(stereo not shown)", "hERG current change (%, negative = inhibition) at 10uM": -15.7}
{"smiles": "COCC(=O)N/N=C(\\C)CC(=O)Nc1ccccc1C(N)=O", "hERG current change (%, negative = inhibition) at 10uM": -0.965}
{"smiles": "CC1CCC(NC(=O)CC(NC(N)=O)c2ccccc2Cl)CC1", "note": "(stereo not shown)", "hERG current change (%, negative = inhibition) at 10uM": 8.04}
{"smiles": "CSCCNC(=O)Nc1c(-c2c(Cl)cccc2Cl)noc1C", "hERG current change (%, negative = inhibition) at 10uM": 14.4}
{"smiles": "CCc1c(C)sc(NC(=O)CSc2nc3c(c(C(F)(F)F)n2)CCc2ccccc2-3)c1C#N", "hERG current change (%, negative = inhibition) at 10uM": -2.8}
{"smiles": "Cc1cc(C)c(S(=O)(=O)Nc2cccc(-n3cnnn3)c2)c(C)c1", "hERG current change (%, negative = inhibition) at 10uM": -9.83}
{"smiles": "CCN(CC)S(=O)(=O)c1ccc(C)c(NC(=O)CNCc2ccccc2OC)c1.O=C(O)C(=O)O", "hERG current change (%, negative = inhibition) at 10uM": -37.7}
{"smiles": "Cc1cccc(Nc2nc(NCCO)nc(N3CCCC3)n2)c1", "hERG current change (%, negative = inhibition) at 10uM": -2.23}
{"smiles": "COc1ccccc1NC(=O)c1ccccc1NC(=O)c1ccccc1C(=O)O", "hERG current change (%, negative = inhibition) at 10uM": 8.81}
{"smiles": "COc1ccc(CNC(=O)C(c2ccco2)N(C(=O)c2ccccn2)c2ccccc2)cc1", "note": "(stereo not shown)", "hERG current change (%, negative = inhibition) at 10uM": -7.52}
{"smiles": "O=C(CN1CCOCC1)Nc1nc(-c2ccccc2)cs1", "hERG current change (%, negative = inhibition) at 10uM": 4.68}
{"smiles": "Cc1nnc(SCc2ccccc2)nc1/C=C/NOCc1ccc(Cl)cc1Cl", "hERG current change (%, negative = inhibition) at 10uM": 13.9}
{"smiles": "CCN1CCN(Cc2ccc(NC(=O)CC3Oc4ccc(C)cc4NC3=O)cc2)CC1", "note": "(stereo not shown)", "hERG current change (%, negative = inhibition) at 10uM": 5.84}
{"smiles": "CN1C(=O)N(C)C(c2ccccc2Cl)C2=C1CC(C)(C)CC2=O", "note": "(stereo not shown)", "hERG current change (%, negative = inhibition) at 10uM": 14.2}
{"smiles": "COC(=O)COc1cccc(NC(=O)c2cccs2)c1", "hERG current change (%, negative = inhibition) at 10uM": 2.46}
